Laboratory results from the RNAGym collection of RNA variant scans (doi:10.1101/gad.245936.114).
Variants at the floor of the assay are shown more often than the library holds them.

B1: tRNA (parent)
chain: CUCUCGGUAGCCAAGUUGGUUUAAGGCGCAAGACUUUAAUUUAUCACUACGAAAUCUUGAGAUCGGGCGUUCGACUCGCCCCCGGGAGAUUUUUUCCUCGAGCAA

Variants of: B1
Assay: nonsense suppression (GFP-seq) (ratio to wild type); higher = more function; SUP4oc tRNA, yeast GFP reporter sort-seq
Outline: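 To measure nonsense suppression, tRNA variants from a library carrying ~3% random mutations were integrated into the yeast genome alongside RFP and a GFP ochre reporter under galactose control. Growth took place in raffinose/galactose medium supplemented with 80 mg/L adenine, followed by sorting into GFP/RFP bins and Illumina sequencing of each bin (phred ≥30). For each variant with ≥100 reads and ≥30 cells, the bin median GFP/RFP values were weighted by its estimated cell share per bin and referenced to the unmutated parent tRNA.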

Nonsense suppression, ≤ 0.026:
CUCUCGGUAGCCAAGUUGGUUUAAGGCGCAAGAUUUUAAUUUAUCACUACGAAAUCAUGAGAUCGAGCGUUCGACUCGCCCCCGGGAGAUUUUUUCCUCGAGCAA [C34U U57A G66A]
CUCUCGGUAGCCAAGUUGGUUUAAGGCGCAAGAUUUUAAUUUAUCACUACGAAAUCUUGAGAUCGGGCGUCCGACUGGCCCCCGGGAGAUUUUUUCCUCGAGCAA [C34U U71C C77G]
CUCUCGGUAGCCAAGUUGGUUUAAGGCGCAAGACAUUAAUUUAUCACUACGAAAUCUUGAGAUCGGGCCUUCGACUUGCCCCCGGGAGAUUUUUUCCUCGAGCAA [U35A G69C C77U]
CUCUCGGUAGCCAAGUUGGUUUAAGGCGCAAGACAUUAAUUUAUCACUACGAAAUCUUGACAUAGGGCGUUCGACUCGCCCCCGGGAGAUUUUUUCCUCGAGCAA [U35A G61C C64A]
CUCUCGGUAGCCAAGUUGGUUUAAGGCGCAAGACAUUAAUUUAUCACUACGAAAUCUUGUAAUCGGGCGUUCAACUCGUCCCCGGGAGAUUUUUUCCUCGAGCAA [U35A A60U G61A G73A C79U]
CUCUCGGUAGCCAAGUUGGUUUAAGGCGCAAGACAUUAAUUUAUCACUACGAAAUCUUGAGAUCGGACGUUCGACUCGCCCCCGGGAGAUUUUUUCCUCGAGCAA [U35A G67A]
CUCUCGGUAGCCAAGUUGGUUUAAGGCGCAAGACAUUAAUUUAUCACUACGAAAUCUUGAGAUCGGGCGUUCGACUCGCGCCCGGGAGAUUUUUUCCUCGAGCAA [U35A C80G]
CUCUCGGUAGCCAAGUUGGUUUAAGGCGCAAGAUUUUAAUUUAUCACUACGAAAUCUUGAGAUCGGGCGUUCGACUCGCCCCCAGGAGAUUUUUUCCUCGAGCAA [C34U G84A]
CUCUCGGUAGCCAAGUUGGUUUAAGGCGCAAGAUUUUAAUUUAUCACUACGAAAUCUUGAGAUCGGGCGUACUACUCGCCCCCGGGAGAUUUUUUCCUCGAGCAA [C34U U71A G73U]
CUCUCGGUAGCCAAGUUGGUUUAAGGCGCAAGAUCUUAAUUUAUCACUACGAAAUCUUGAGAUCGGGCGUUCGACUCGCCCCCGGGAGAUUUUUUCCUCGAGCAA [C34U U35C]
CUCUCGGUAGCCAAGUUGGUUUAAGGCGCAAGAUUUUAAUUUAUCACUACGAAAUCUUGAGAUCGGGCAUUCGACUCGCCCCCGGGGGAUUUUUUCCUCGAGCAA [C34U G69A A87G]
CUCUCGGUAGCCAAGUUGGUUUAAGGCGCAAGAUUUUAAUUUAUCACUACGAAAGAUUGAGAUCGGGCGUUCGAUUCGCCACCGGGAGAUUUUUUCCUCGAGCAA [C34U U55G C56A C75U C81A]
CUCUCGGUAGCCAAGUUGGUUUAAGGCGCAAGACAUUAAUUUAUCACUACGAAAUCUUGAGAUCGGGCGUUCGACUCGCCCGCGGGAGAUUUUUUCCUCGAGCAA [U35A C82G]
CUCUCGGUAGCCAAGUUGGUUUAAGGCGCAAGAUUUUAAUUUAUCACUACGAAAUCUUGAGAUCAGGCGUUCGACUCGCCCCCGGGAGAUUUUUUCCUCGAGCAA [C34U G65A]
CUCUCGGUAGCCAAGUUGGUUUAAGGCGCAAGACAUUAAUUUAUCACUACGAAAUCUUGAGAUCGGGCGUUCGACUCACCCCCGGGAGAUUUUUUCCUCGAGCAA [U35A G78A]
CUCUCGGUAGCCAAGUUGGUUUAAGGCGCAAGAUUUUAAUUUAUCACUACGAAAUCUUGAGAUCGGGCAUUCGACUCGCCCCCGGGAGCUUUUUUCCUCGAGCAA [C34U G69A A89C]
CUCUCGGUAGCCAAGUUGGUUUAAGGCGCAAGAUUUUAAUUUAUCACUACGAAAUCUAGAGAUCGGGCGUCCGACUCGCCCCCGGGAGAUUUUUUCCUCGAGCAA [C34U U58A U71C]
CUCUCGGUAGCCAAGUUGGUUUAAGGCGCAAGACAUUAAUUUAUCACUACGAAAUCUUGAGAUCGGGCGUUUGACUCGCCCCCGGGAGAUUUUUUCCUCGAGCAA [U35A C72U]
CUCUCGGUAGCCAAGUUGGUUUAAGGCGCAAGACAUUAAUUUAUCACUACGAAAUCUUGAGAUCGAGCGUUCGACUCGCCGCCGGGAAAUUUUUUCCUCGAGCAA [U35A G66A C81G G88A]
CUCUCGGUAGCCAAGUUGGUUUAAGGCGCAAGAUUUUAAUUUAUCACUACGAAAUCUCGAGAUCGGGCGUUCGACACGCCCCCAGGAGAUUUUUUCCUCGAGCAA [C34U U58C U76A G84A]
CUCUCGGUAGCCAAGUUGGUUUAAGGCGCAAGACAUUAAUUUAUCACUACGAACUCCUGAGAUCGGGCGUUCGACUCGCCCCCGGCAGAUUUUUUCCUCGAGCAA [U35A A54C U57C G86C]
CUCUCGGUAGCCAAGUUGGUUUAAGGCGCAAGACAUUAAUUUAUCACUACGAAAUGUUGAGAUCGGGCGUUCGACUCGCCCCCGGGAGAUUUUUUCCUCGAGCAA [U35A C56G]
CUCUCGGUAGCCAAGUUGGUUUAAGGCGCAAGACAUUAAUUUAUCACUACGAAAUCUUGAGAUCGUUCGUUCGUCUCGCCCCCGGGAGAUUUUUUCCUCGAGCAA [U35A G66U G67U A74U]
CUCUCGGUAGCCAAGUUGGUUUAAGGCGCAAGAUUUUAAUUUAUCACUACGAAAUCUGGACAUCGGGCGUUCGACUCGCCCCCGGGAGUUUUUUUCCUCGAGCAA [C34U U58G G61C A89U]
CUCUCGGUAGCCAAGUUGGUUUAAGGCGCAAGAUUUUAAUUUAUCACUACGAAAUCUUGAGAUCGGCCGUUCUACUCGCCCCCGGGAGAUUUUUUCCUCGAGCAA [C34U G67C G73U]
CUCUCGGUAGCCAAGUUGGUUUAAGGCGCAAGAUGUUAAUUUAUCACUACGAAAUCUUGAGAUCGGGCGUUCGUCUCGCCCCCGGGAAAUUUUUUCCUCGAGCAA [C34U U35G A74U G88A]
CUCUCGGUAGCCAAGUUGGUUUAAGGCGCAAGAUUUUAAUUUAUCACUACGAAAUCUUGAGAUCGGGCGAUCGACUUGCCCCCGGGAGAUUUUUUCCUCGAGCAA [C34U U70A C77U]
CUCUCGGUAGCCAAGUUGGUUUAAGGCGCAAGAUUUUAAUUUAUCACUACGAAAUCUGGACAUCGGGCGUUCGACUCGCCCCCGGGAGAUUUUUUCCUCGAGCAA [C34U U58G G61C]
CUCUCGGUAGCCAAGUUGGUUUAAGGCGCAAGACAUUAAUUUAUCACUACGAAGUCUUGAGAUCGGGCGUUCGACUCGCCCCCGGGAGAUUUUUUCCUCGAGCAA [U35A A54G]
CUCUCGGUAGCCAAGUUGGUUUAAGGCGCAAGACAUUAAUUUAUCACUACGAAAUCUUGAGAUCGCGCGUUCGACUCGCCCCCGGGAGAUUUUUUCCUCGAGCAA [U35A G66C]
CUCUCGGUAGCCAAGUUGGUUUAAGGCGCAAGAUUUUAAUUUAUCACUACGAAAUCUUGAGAUCGGGCGUUCGACACGCCCCCGGGAGAUUUUUUCCUCGAGCAA [C34U U76A]
CUCUCGGUAGCCAAGUUGGUUUAAGGCGCAAGACAUUAAUUUAUCACUACGAAAUCUUGAGAUCGGGCAUUCGACUCGCCCCCCGGAGGUUUUUUCCUCGAGCAA [U35A G69A G84C A89G]
CUCUCGGUAGCCAAGUUGGUUUAAGGCGCAAGAUUUUAAUUUAUCACUACGAAAUCUUGAGACCGGGCGUUCGACUCGCCCCCGCGAGAUUUUUUCCUCGAGCAA [C34U U63C G85C]
CUCUCGGUAGCCAAGUUGGUUUAAGGCGCAAGAUUUUAAUUUAUCACUACGAAAUCUUGAGAUCGGGCUUUCGACUCGCGCCCGGGAGAUUUUUUCCUCGAGCAA [C34U G69U C80G]
CUCUCGGUAGCCAAGUUGGUUUAAGGCGCAAGACAUUAAUUUAUCACUACGAAAUCGUGAGAACGGGCGUUCGACUUGCCCCCGGGAGAUUUUUUCCUCGAGCAA [U35A U57G U63A C77U]
CUCUCGGUAGCCAAGUUGGUUUAAGGCGCAAGACAUUAAUUUAUCACUACGAAAUCCUGAGAUCGGGCGUUCGACUCCCCCCCGGGAGAUUUUUUCCUCGAGCAA [U35A U57C G78C]
CUCUCGGUAGCCAAGUUGGUUUAAGGCGCAAGACAUUAAUUUAUCACUACGAAAUCUUGAGAUCGGGCGUUCGACUCACCCCAGGGAGAUUUUUUCCUCGAGCAA [U35A G78A C83A]
CUCUCGGUAGCCAAGUUGGUUUAAGGCGCAAGACAUUAAUUUAUCACUACGAAAUGUUGAGAUCGGGCGUUCAACUUGGCCCCGGGAGAUUUUUUCCUCGAGCAA [U35A C56G G73A C77U C79G]
CUCUCGGUAGCCAAGUUGGUUUAAGGCGCAAGAUUUUAAUUUAUCACUACGAAAUCAUGAGAUCGGGCGUUCGACUCGCCCCCGGGAGAUUUUUUCCUCGAGCAA [C34U U57A]
CUCUCGGUAGCCAAGUUGGUUUAAGGCGCAAGACAUUAAUUUAUCACUACGAACUCUUGAGAUCGGGCGUUCGACUCGCACCCGGGACAUUUUUUCCUCGAGCAA [U35A A54C C80A G88C]
CUCUCGGUAGCCAAGUUGGUUUAAGGCGCAAGACAUUAAUUUAUCACUACGAAAUCUUGAGAUCGGGCGUUCAACUCGCCCCCGGAAGAUUUUUUCCUCGAGCAA [U35A G73A G86A]
CUCUCGGUAGCCAAGUUGGUUUAAGGCGCAAGAUUUUAAUUUAUCACUACGAAAUCUUGAGAUCGGGCGUGCGACUCGCCCCCGGGAGAUUUUUUCCUCGAGCAA [C34U U71G]
CUCUCGGUAGCCAAGUUGGUUUAAGGCGCAAGAUUUUAAUUUAUCACUACGAAAUCUUGAGAUCUGGCGUUCGACUCGCCCACUGGAGAUUUUUUCCUCGAGCAA [C34U G65U C82A G84U]
CUCUCGGUAGCCAAGUUGGUUUAAGGCGCAAGAUUUUAAUUUAUCACUACGAAAUCUUGAGAUCGGGCGUUCGACUCAACCCCGGGAGAUUUUUUCCUCGAGCAA [C34U G78A C79A]
CUCUCGGUAGCCAAGUUGGUUUAAGGCGCAAGACAUUAAUUUAUCACUACGAAGUCUUGAGAUCGGGCGUUCGACCCGCCCCCGGGAGAUUUUUUCCUCGAGCAA [U35A A54G U76C]
CUCUCGGUAGCCAAGUUGGUUUAAGGCGCAAGACAUUAAUUUAUCACUACGAAAUCAUGAGAUCGGGCGUUCGACUCGCCCCCGGGAGAUUUUUUCCUCGAGCAA [U35A U57A]
CUCUCGGUAGCCAAGUUGGUUUAAGGCGCAAGAUUUUAAUUUAUCACUACGAAAUCUUGAGAUCGCGCGUCCGACUCGCCCCCGGGAGAUUUUUUCCUCGAGCAA [C34U G66C U71C]
CUCUCGGUAGCCAAGUUGGUUUAAGGCGCAAGACAUUAAUUUAUCACUACGAAAUCUUGAGAUCGGGCGUUCGACUCGCCCCCGGUAGAUUUUUUCCUCGAGCAA [U35A G86U]
CUCUCGGUAGCCAAGUUGGUUUAAGGCGCAAGACAUUAAUUUAUCACUACGAAAUCUUGAGAUCGGGCGUUCGACUCGCCCCCGGCAGAUUUUUUCCUCGAGCAA [U35A G86C]
CUCUCGGUAGCCAAGUUGGUUUAAGGCGCAAGACAUUAAUUUAUCACUACGAAAUCUUGAGAUCGGCCGUUCUACUCGCCCCCGGGAGAUUUUUUCCUCGAGCAA [U35A G67C G73U]
CUCUCGGUAGCCAAGUUGGUUUAAGGCGCAAGAUUUUAAUUUAUCACUACGAAAUCCUGAGAUCGGGCGUUCGACACGCCCCCGGGAGAUUUUUUCCUCGAGCAA [C34U U57C U76A]
CUCUCGGUAGCCAAGUUGGUUUAAGGCGCAAGACAUUAAUUUAUCACUACGAAAUCUUAAGAUCGGGCGUUCGACUCGCCCCCGGGAGAUUUUUUCCUCGAGCAA [U35A G59A]
CUCUCGGUAGCCAAGUUGGUUUAAGGCGCAAGAUUUUAAUUUAUCACUACGAAAUCUUGAGAUCGGGCGUUCCACUCGCCCCCGGGAGAUUUUUUCCUCGAGCAA [C34U G73C]
CUCUCGGUAGCCAAGUUGGUUUAAGGCGCAAGACAUUAAUUUAUCACUACGAAAUCGUGAGAUCGGGCGUUCGACUCGGCCCCGGGAGAUUUUUUCCUCGAGCAA [U35A U57G C79G]
